Results published in PubChem BioAssay AID602340 (Broad Institute, 2012).
Screen size: about 330,000 compounds; about 2,600 (0.79%) were called active. The shares of active, inactive and inconclusive entries below differ from those in the screen.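 How the source made its calls: active means mean ATP rescue above about 67%, or every replicate alone reaching that limit (limit read from the data, passing the limit was not always enough); inconclusive means no clear call, values can overlap the other calls; inactive means mean under the limit and some replicate under it.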

Experiment: suppressors of statin myotoxicity in C2C12 myotubes, primary screen, cell-based, single point, plate reader (AID 602340);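 further: myotubes were challenged with 10 µM simvastatin during compound exposure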
Conditions: C2C12 myotubes + simvastatin, ATP luminescence, 48 h; at 7.49 µM; active compounds read high; scaled: DMSO 0, geranylgeraniol control 100

Compound	rescue of ATP level
CCc1nc2ccc(C(=O)N3CCN(S(=O)(=O)CC)CC3)cn2c1N(C)Cc1cccs1	inconclusive: 77.3%
O=C(NCC(=O)N(Cc1cccs1)C(C(=O)NC1CCCCC1)c1cccnc1)c1ccco1 (stereo unspecified)	active: 133%
COc1ccc(CCNS(=O)(=O)c2ccc(C(=O)NCc3ccco3)cc2)cc1OC	inconclusive: 67.7%
COc1ccccc1C(=O)Nc1ccc2c(c1)OC[C@H](C)N(C)C[C@@H](C)[C@@H](OC)CN(C)C2=O	inactive: -3.75%
COc1ccc(-c2ccc3n(c2=O)C[C@H]2[C@H](CO)[C@@H](C(=O)N(C)C)N(CC4CCCC4)[C@@H]32)cc1	inconclusive: 92.8%
COc1ccc(C2Nc3ccccc3C(=O)N2c2ccc(C)cc2)cc1Cn1cc([N+](=O)[O-])cn1 (stereo unspecified)	inactive: -32.7%
N#Cc1c(-c2ccccc2)nc(SCc2cccc(Cl)c2)[nH]c1=O	inconclusive: 22.9%
O=C1CCC(C(=O)OCC(=O)C23CC4CC(CC(C4)C2)C3)N1 (stereo unspecified)	active: 89.9%
C[C@@H]1C[C@@H]2O[C@H]2/C=C\C=C\C(=O)Cc2c(Cl)c(O)cc(O)c2C(=O)O1	inconclusive: 68.8%
CCc1nc(SCc2ccc(Br)cc2)n[nH]1	inconclusive: 6.91%
CCOc1ccc2nc(SCC(=O)c3ccccc3)sc2c1	inactive: -20.4%
C/C=C/c1ccc2c(c1)O[C@H](CN(C)C(=O)Cc1ccccc1)[C@@H](C)CN([C@@H](C)CO)S2(=O)=O	inactive: -12.3%
C[C@@H]1CCCCO[C@@H](CN(C)C(=O)Cc2ccccc2)[C@H](C)CN([C@@H](C)CO)C(=O)c2cc(NC(=O)Nc3ccc(C(F)(F)F)cc3)ccc2O1	inactive: -14.5%
Cc1ccc(NS(=O)(=O)c2cc(C(=O)N3CCc4ccccc4C3)ccc2Cl)cc1	inconclusive: 67.9%
Cc1nc(SCC(=O)OCc2ccccc2)c(C#N)c(-c2ccccc2)c1C(=O)Nc1ccccc1	inactive: 3.26%
COc1nc(C#N)c(N2CCOCC2)o1	inconclusive: 66.2%
N#Cc1cc2ccccc2nc1SCc1ccccn1	inconclusive: 66.3%
Cc1ccc(/C=C/C(=O)OCn2nnc3ccccc3c2=O)o1	inconclusive: 69.1%
COc1ccc(Nc2nc3c(c(=O)n(C)c(=O)n3C)n2CCO)cc1	inconclusive: 82.5%
C[C@@H]1CCCCO[C@@H](CN(C)C(=O)C2CCCCC2)[C@H](C)CN([C@@H](C)CO)C(=O)c2cc(NS(=O)(=O)c3ccccc3)ccc2O1	inconclusive: 69.8%
O=C(Nc1cccc2ccccc12)c1ccc([N+](=O)[O-])o1	inconclusive: 85.2%
